For 18 compounds, Potency results are on record in PubChem BioAssay (Tox21).

Inconclusive results are not listed. Unless noted, calls come from the whole dose curve; as a rule, active = well fitted curve in the direction sought with a large enough effect in the repeat runs; inconclusive = weak or mixed curves; inactive = no such curve, though single readings can be large; an effect the other way counts as inactive or inconclusive. More than one record can exist for a structure, and the calls need not agree. Not every entry of the source has a single result; some have several. The other results are left out here. An entry can have further records. Values given together are repeated measurements (runs, samples, wells, individuals or studies). Brackets tell where a record comes from. Letters hold for one entry only.
Potency is the fitted concentration of half-maximal effect.

A short description of one test: qHTS assay for small molecules that induce genotoxicity in human embryonic kidney cells expressing luciferase-tagged ATAD5 - cell viability (AID 651634; calls by dose curve; note: nearly all actives have a fitted effect of over 25% in size). Conditions: HEK293T ATAD5-luc cells viability, CellTiter-Fluor, 15.5 h; series mostly up to 83.3 µM. The essentials: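 Live-cell protease activity (CellTiter-Fluor, fluorescence) indicates viability. HEK293T cells with luciferase-tagged ATAD5; 15.5 hr compound treatment at 37C.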
In general terms: Quantitative high-throughput screening tests each substance at several concentrations.
For the compound `CCCCC/C=C/C=C/C=O`, the Potency result was “active: 19.2 µM [sample A] and inactive [sample B]”. Same read-out and setting: the same measure for `C=CC(C)(CCC=C(C)C)OC(C)=O` (configuration not stated): “inactive [sample A] and active: 48.6 µM [sample B]”. The same measure, in the same setting: the same measure for `COc1cccc2c1C(=O)c1c(O)c3c(c(O)c1C2=O)C[C@@](O)(C(=O)CO)C[C@@H]3O[C@H]1C[C@H](N)[C@H](O)[C@H](C)O1`: “inactive [sample A] and active: 11.9 µM [sample B] and active: 27.3 µM [sample C]”; for `Cn1cnc([N+](=O)[O-])c1Sc1ncnc2nc[nH]c12`: “inactive [sample A] and active: 27.3 µM [sample B]”.

A further test in a line: qHTS assay to identify small molecule antagonists of the glucocorticoid receptor (GR) signaling pathway - cell viability counter screen (AID 720693). Note: nearly all actives have a fitted effect of over 55% in size. As to conditions: GR-bla HeLa viability, CellTiter-Glo luminescence, 18 h, with 5 nM dexamethasone present; series mostly up to 58.5 µM.
In the case of `COc1cccc2c1C(=O)c1c(O)c3c(c(O)c1C2=O)C[C@@](O)(C(=O)CO)C[C@@H]3O[C@H]1C[C@H](N)[C@H](O)[C@H](C)O1`, the Potency entry is “inactive [sample A] and active: 12 µM [sample B] and active: 1.38 µM [sample C]”. Turning to `C#C[C@]1(O)CC[C@H]2[C@@H]3CCC4=Cc5oncc5C[C@]4(C)[C@H]3CC[C@@]21C`, the Potency entry is “inactive [sample A] and active: 54.9 µM [sample B]”. Regarding `Cc1ccc(C(=O)c2cc(O)c(O)c([N+](=O)[O-])c2)cc1`, the Potency result is “inactive [sample A] and active: 49 µM [sample B]”.

In the case of `Oc1ccc(O)cc1`, the Potency result is “inactive [sample A] and active: 54.6 µM [sample B]”. On to `CC(=O)O[C@]1(C(C)=O)CC[C@H]2[C@@H]3C=C(Cl)C4=CC(=O)[C@@H]5C[C@@H]5[C@]4(C)[C@H]3CC[C@@]21C`, for which the Potency result was “inactive [sample A] and active: 21.9 µM [sample B]”. For `Cn1cnc([N+](=O)[O-])c1Sc1ncnc2nc[nH]c12`, the Potency result is “inactive [sample A] and active: 866 nM [sample B]”.

The next test in a line: qHTS assay to identify small molecule antagonists of the thyroid receptor (TR) signaling pathway (AID 743065). Note: nearly all actives have a fitted effect of over 55% in size. As to conditions: GH3.TRE-Luc, T3-stimulated luciferase inhibition, 23.5 h; series mostly up to 70.3 µM. The text has this:
U.S. Tox21 Program National Center for Advancing Translational Sciences [NCATS] NIH Chemical Genomics Center [NCGC] U.S. Environmental Protection Agency [EPA] National Institutes of Environmental Health Sciences [NIEHS] National Toxicology Program [NTP] U.S. Food and Drug Administration [FDA] Tox21 Assay Overview: Thyroid receptor (TR), a nuclear hormone receptor, plays an important role in development, proliferation, differentiation, metabolism, brain function, and cardiovascular system. […] To profile the Tox21 10K compound library in TR signaling, a cell-based GH3-TRE-Luc assay (GH3.TRE-Luc cell line, developed by the laboratory of Dr. Albertinka J. Murk, Wageningen University) was used to measure the inhibition of TR. GH3 (rat pituitary tumor) cells stably expressing a TR activity sensor consisting of two TR response elements and a luciferase reporter gene.
Tox21 Assay Protocol Summary: GH3.TRE-Luc cells were dispensed at 1500 cells/4 uL/well into 1536-well white solid bottom plates using a Multidrop Combi dispenser (Thermo Fisher Scientific Inc., Waltham, MA). After the assay plates were incubated at 37 C for 4 hours, 23 nL of library compound or DMSO controls was transferred to the assay plates by a pintool station (Kalypsys, San Diego, CA), followed by addition of 1 ul of T3 (1 nM, final concentration in the wells) to stimulate TR transactivation. The assay plates were incubated at 37 C for 23.5 h, and then 1 uL of CellTiter-Fluor reagent (Promega, Madision, WI) of measuring cytotoxicity was added to each well using a Bioraptr Flying Reagent Dispenser (FRD) workstation (Beckman Coulter, Indianapolis, IN, USA). The plates were incubated at 37 C and 5% CO2 for additional 30 min, and fluorescence intensity was measured by a ViewLux plate reader (PerkinElmer, Shelton, CT). For measuring luciferase reporter gene activity, 4 uL of ONE-Glo Luciferase Assay reagent (Promega) was added to each well using a Bioraptr FRD (Beckman Coulter), followed by 30 min incubation at room temperature. The luminescence intensity of plates was recorded by a ViewLux plate reader (PerkinElmer, Shelton, CT).
For `C[C@]12CC[C@H]3[C@@H](CCC4=CC(=O)CC[C@@]43C)[C@@H]1CC[C@@H]2C(=O)CO`, the Potency entry was “inactive [sample A] and active: 30.6 µM [sample B]”.

Take `CCCCC/C=C/C=C/C=O`: the Potency result is “inactive [sample A] and active: 68.6 µM [sample B]”. Still for that read-out and setting: the same measure for `Brc1cc(Oc2cc(Br)c(Br)c(Br)c2Br)c(Br)c(Br)c1Br`: “active: 9.73 µM [sample A] and inactive [sample B]”; for `COc1cccc2c1C(=O)c1c(O)c3c(c(O)c1C2=O)C[C@@](O)(C(=O)CO)C[C@@H]3O[C@H]1C[C@H](N)[C@H](O)[C@H](C)O1`: “inactive [sample A] and active: 944 nM [sample B] and active: 86.2 nM [sample C]”; for `CCCCCCCCCCCO`: “inactive [sample A] and active: 27.3 µM [sample B]”. On the same count and under the same terms, the same measure for `Cn1cnc([N+](=O)[O-])c1Sc1ncnc2nc[nH]c12`: “inactive [sample A] and active: 54.5 µM [sample B]”.

The next test can be described thus: A CellTox Green Cytotoxicity Assay to monitor cytotoxicity in HEK293 cells - 24 hour (AID 1224875). Note: nearly all actives have a fitted effect of over 45% in size. As to conditions: CellTox Green fluorescence; series mostly up to 76.8 µM. The essentials:
(§1)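 Each value comes from one timepoint of a single continuous run in which HEK293 cells with CellTox Green were exposed to compound for up to 40 h at 37 C, dye fluorescence rising with cell death.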
On to `CC(=O)C1(C)CC2=C(CCCC2(C)C)CC1C` (configuration not stated), for which the Potency entry is “inactive [sample A] and active: 49 µM [sample B]”.

Consider `c1ccc(Nc2ccccc2)cc1`, for which the Potency result is “active: 19.5 µM [sample A] and inactive [sample B]”. Turning to `c1ccc2c(c1)Oc1ccccc1S2`, the Potency result was “active: 55.8 µM [sample A] and inactive [sample B]”. Still for that read-out and setting: the same measure for `O=C(c1ccc(OCCN2CCCCC2)cc1)c1c(-c2ccc(O)cc2)sc2cc(O)ccc12`: “active: 49 µM [sample A] and inactive [sample B]”; for `Cn1cnc([N+](=O)[O-])c1Sc1ncnc2nc[nH]c12`: “active: 34.5 µM [sample A] and inactive [sample B]”. On to `OC1CCCCCCCCCCC1`, for which the Potency result was “inactive [sample A] and active: 43.6 µM [sample B]”. Still for that read-out and setting: the same measure for `CCC(C)c1ccccc1O` (configuration not stated): “active: 34.4 µM [sample A] and inactive [sample B]”; for `CC1=CC2C3CC(C=C3C)C2C1` (configuration not stated): “inactive [sample A] and active: 38.9 µM [sample B]”.

The nature of the next test: A CellTox Green Cytotoxicity Assay to monitor cytotoxicity in HEK293 cells - 16 hour (AID 1224888). Note: nearly all actives have a fitted effect of over 35% in size. As to conditions: CellTox Green fluorescence; series mostly up to 76.8 µM. The essentials: as §1
Take `OC1CCCCCCCCCCC1`: the Potency entry is “inactive [sample A] and active: 43.6 µM [sample B]”. Turning to `CCC(C)c1ccccc1O` (configuration not stated), the Potency result is “active: 24.4 µM [sample A] and inactive [sample B]”. Same read-out and setting: the same measure for `CC1=CC2C3CC(C=C3C)C2C1` (configuration not stated): “inactive [sample A] and active: 27.5 µM [sample B]”.
